# The campaign covered roughly 310,000 compounds. About 2,200 (0.71%) showed an effect of 50% or more. The effect is printed as a negative number. This is one part of the list.
# Biological target: human ether-à-go-go-related gene (hERG) potassium channel (human, UniProt Q12809)
# Test: primary screen, population patch clamp on CHO cells stably expressing hERG
# Chain of human ether-à-go-go-related gene (hERG) potassium channel (Q12809 whole entry, looked up): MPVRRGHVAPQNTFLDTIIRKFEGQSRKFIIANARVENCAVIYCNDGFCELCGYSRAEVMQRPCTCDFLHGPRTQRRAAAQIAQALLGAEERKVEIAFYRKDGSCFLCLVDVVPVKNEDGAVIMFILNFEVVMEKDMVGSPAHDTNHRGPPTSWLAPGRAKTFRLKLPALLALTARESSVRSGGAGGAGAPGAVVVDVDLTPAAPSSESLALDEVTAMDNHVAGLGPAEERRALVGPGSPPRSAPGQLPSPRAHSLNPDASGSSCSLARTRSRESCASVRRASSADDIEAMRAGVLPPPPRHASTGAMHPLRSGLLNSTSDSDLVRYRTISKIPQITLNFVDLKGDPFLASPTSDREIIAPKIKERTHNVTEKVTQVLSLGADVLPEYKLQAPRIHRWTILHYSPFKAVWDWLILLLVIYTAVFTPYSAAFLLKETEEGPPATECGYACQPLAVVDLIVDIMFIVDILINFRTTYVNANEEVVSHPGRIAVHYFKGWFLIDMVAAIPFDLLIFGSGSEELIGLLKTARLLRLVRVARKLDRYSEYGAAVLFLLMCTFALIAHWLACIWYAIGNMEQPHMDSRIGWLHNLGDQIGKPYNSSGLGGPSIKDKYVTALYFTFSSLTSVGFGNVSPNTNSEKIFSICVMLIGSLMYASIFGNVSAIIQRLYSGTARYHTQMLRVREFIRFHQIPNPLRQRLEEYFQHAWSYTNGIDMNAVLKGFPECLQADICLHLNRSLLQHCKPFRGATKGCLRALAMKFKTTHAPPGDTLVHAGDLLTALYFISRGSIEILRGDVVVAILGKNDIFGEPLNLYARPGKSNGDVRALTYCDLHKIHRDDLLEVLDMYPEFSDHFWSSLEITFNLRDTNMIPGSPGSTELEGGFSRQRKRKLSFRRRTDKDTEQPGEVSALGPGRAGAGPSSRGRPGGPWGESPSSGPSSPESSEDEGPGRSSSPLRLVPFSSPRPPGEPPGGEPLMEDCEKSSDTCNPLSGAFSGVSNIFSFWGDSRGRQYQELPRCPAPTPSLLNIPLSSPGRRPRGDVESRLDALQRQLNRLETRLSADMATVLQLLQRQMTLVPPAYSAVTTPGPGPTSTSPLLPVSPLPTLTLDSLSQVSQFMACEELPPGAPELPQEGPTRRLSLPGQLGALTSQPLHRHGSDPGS
row,SMILES,"hERG current change (%, negative = inhibition) at 1uM [%]"
1,CN(C(=O)c1cc2nc(-c3ccco3)cc(C(F)(F)F)n2n1)C1CCCCC1,-4.82
2,CCCc1ccc(Oc2coc3cc(OCC(=O)Nc4ccccc4C)ccc3c2=O)cc1,8.41
3,COc1ccc(C2=Nn3c(nnc3-c3ccncc3)SC2)cc1,-13.3
4,Cc1ccc(S(=O)(=O)NC(C)c2ccccc2)cc1[N+](=O)[O-] (centres unmarked),14
5,O=C(CSc1ccc(Cl)cc1)NCc1ccco1,10.9
6,COc1ccc(/C=N/NC(=O)C(=O)N2CCCCCC2)cc1O,-0.179
7,Cc1nc([N+](=O)[O-])c(Sc2nc3ccccc3[nH]2)n1Cc1ccccc1,7.3
8,Cc1ccc(S(=O)(=O)N(C)CC(=O)O/N=C(\N)c2ccc([N+](=O)[O-])cc2)cc1,-9.52
9,Cc1cccc(N(Cc2cc(=O)[nH]c3ccccc23)C(=O)CCl)c1,17.9
10,C=CCSc1nccc(-c2cc(Cl)sc2Cl)n1,-7.75
11,Cc1cccc(/C=C\c2nc3ccccc3c(=O)[nH]2)c1,13.9
12,COc1ccc(NC(=O)c2sccc2SCc2cccc(C(F)(F)F)c2)cc1,13.3
13,CCC(=O)Nc1cc(C(C)(C)C)ccc1C(C)=O,18.4
14,COc1ccc(C2NC(=O)c3ccccc3N2)cc1 (centres unmarked),17.7
15,CSc1nc(N2CCN(C)CC2)c2c(c1C#N)CC(C)(C)OC2,-14.5
16,COCCn1c(SCC(=O)N2CCCCC2)nc2c([nH]c3ccccc32)c1=O,-3.41
17,O=C(O)CCC(=O)N1CCN(c2nc(-c3ccccc3)c3ccccc3n2)CC1,15
18,CC1C(=O)Nc2ccccc2N1C(=O)c1ccc(F)cc1 (centres unmarked),14.1
19,Cc1ccc(S(=O)(=O)N2CCOCC2)cc1C(=O)Nc1cccc(C(=O)NC2CC2)c1,5.57

row,SMILES,"hERG current change (%, negative = inhibition) at 1uM [%]"
1,O=S(=O)(NCC1CCCO1)c1ccc(NS(=O)(=O)c2ccc(F)cc2)cc1 (centres unmarked),13.2
2,COCCNc1nc2nonc2nc1NC(C)c1ccccc1Cl (centres unmarked),10.5
3,CC(C)[C@H](NC(=O)[C@@H]1CSCN1C(=O)OC(C)(C)C)C(=O)NCC1CCC(C(=O)O)CC1 (some centres unmarked),8.41
4,Cn1c(=O)[nH]c(=O)c2c1nc(Br)n2CC(O)COCc1ccccc1 (centres unmarked),14.2
5,CCc1nnc(NC(=O)CSc2nc(-c3ccccc3)c(-c3ccccc3)o2)s1,8.46
6,Cn1cnnc1SCC(=O)Nc1c(F)cc(F)cc1Br,9.87
7,COc1ccccc1N1C(=O)C2C3C=CC(C3)C2(C)C1=O (centres unmarked),5.25
8,Cc1ccccc1NC(=O)Cc1nc(COC(=O)c2ccc(C(F)(F)F)cc2)cs1,16.5
9,CCOc1ncccc1C(=O)NCc1ccc(C)cc1,3.44
10,CCc1ccccc1NC(=O)C(CC)Sc1nc2cc3c(cc2c(=O)n1Cc1ccco1)OCO3 (centres unmarked),10.5
11,CC1(C)C(=O)OC(c2cccn2-c2cccc([N+](=O)[O-])c2)C2(CCCCC2)C1=O (centres unmarked),0.105
12,Cn1c(N2CCN(C(c3ccccc3)c3ccccc3)CC2)nc2ccccc21,-13.3
13,CCOc1ccc(-c2nnn(CC(=O)Nc3ccccc3OC)n2)cc1OCC,7.12
14,COCCCNC(=O)CNC(=S)N(Cc1ccc(F)cc1)C1CCCCC1,-2.58
15,Cc1ccc(S(=O)(=O)N2CCCOC2CNC(=O)C(=O)NCCN2CCOCC2)cc1 (centres unmarked),8.3
16,CCCC1Cc2c(sc(NC(=S)NC(=O)c3ccccc3)c2C#N)CO1 (centres unmarked),8.23
17,Cc1ccccc1CCN1CCCC(CN(C)C(=O)c2ccc3ncccc3c2)C1 (centres unmarked),-4.16
18,CCCCCOC(=O)Cn1c(=O)oc2ccccc21,8
19,Cc1cccc(NC(=O)CSc2nc3ccccc3nc2N2CCCC2)c1,7.16

row,SMILES,"hERG current change (%, negative = inhibition) at 1uM [%]"
1,Cc1ccc(S(=O)(=O)N2CCC(C(=O)NNS(=O)(=O)c3ccc(Cl)cc3)CC2)cc1,10.1
2,Cc1ccccc1CC1(CO)CCCN(C(=O)c2cccc(Cl)c2)C1 (centres unmarked),7.03
3,COC(=O)/C(=C/c1c[nH]c2ccccc12)[N+](=O)[O-],11.6
4,CCc1nc(SCC(=O)OC)c2c3c(sc2n1)COC(C)(C)C3,16.1
5,Cc1oc(-c2ccccc2)[n+]([O-])c1C.Cl,9.06
6,CCCn1c(SCc2nc3sc(C)c(C)c3c(=O)[nH]2)nc2ccccc2c1=O,7.16
7,O=c1[nH]cc(NCCNc2ncc(C(F)(F)F)cc2Cl)c(=O)[nH]1,5.9
8,COc1ccc(C(=O)Nc2ccccc2N2CCN(C(=O)c3ccccc3)CC2)cc1Br,13.3
9,CCC(=O)N1CCc2cc(S(=O)(=O)NCCc3ccc(S(N)(=O)=O)cc3)ccc21,22.4
10,CCCN(Cc1cc2ccc(C)cc2[nH]c1=O)C(=O)c1cccnc1,0.816
11,CCN(CC)S(=O)(=O)c1cc(NC(=O)COC(=O)c2c(C)noc2C)ccc1C,0.523
12,CCCn1c(SCC(=O)Nc2nc(C)cs2)nnc1-c1cccnc1,-12.8
13,Cc1ccc(NC(=O)Cn2ccsc2=N)c([N+](=O)[O-])c1.Cl,58.8
14,CCOC(=O)c1cn(Cc2ccccc2)nn1,8.02
15,Cc1ccc(O)c(-c2cc(C(=O)Nc3c(C)n(C)n(-c4ccccc4)c3=O)[nH]n2)c1,4.61
16,COc1ccc(S(=O)(=O)Nc2cc(C)c(O)c(S(=O)(=O)c3ccccc3)c2)cc1,5.94
17,CC(=O)NCC(=O)N1CCCC(C(=O)c2ccc(Oc3ccccc3)cc2)C1 (centres unmarked),-0.0494
18,CCOC(=O)c1c(NC(=O)CSc2nnc(-c3c[nH]c4ccccc34)n2C)sc2c1CCCC2,9.41
